Results are given in words; binding and its absence hold for the method and conditions named. Binding seen in cells or lysates may run through a third protein. Some binding calls cover weakened binding; strength is not graded here.

Sequences of proteins named here, by UniProt entry; tags and fusion partners are left off.
UniProt P35222: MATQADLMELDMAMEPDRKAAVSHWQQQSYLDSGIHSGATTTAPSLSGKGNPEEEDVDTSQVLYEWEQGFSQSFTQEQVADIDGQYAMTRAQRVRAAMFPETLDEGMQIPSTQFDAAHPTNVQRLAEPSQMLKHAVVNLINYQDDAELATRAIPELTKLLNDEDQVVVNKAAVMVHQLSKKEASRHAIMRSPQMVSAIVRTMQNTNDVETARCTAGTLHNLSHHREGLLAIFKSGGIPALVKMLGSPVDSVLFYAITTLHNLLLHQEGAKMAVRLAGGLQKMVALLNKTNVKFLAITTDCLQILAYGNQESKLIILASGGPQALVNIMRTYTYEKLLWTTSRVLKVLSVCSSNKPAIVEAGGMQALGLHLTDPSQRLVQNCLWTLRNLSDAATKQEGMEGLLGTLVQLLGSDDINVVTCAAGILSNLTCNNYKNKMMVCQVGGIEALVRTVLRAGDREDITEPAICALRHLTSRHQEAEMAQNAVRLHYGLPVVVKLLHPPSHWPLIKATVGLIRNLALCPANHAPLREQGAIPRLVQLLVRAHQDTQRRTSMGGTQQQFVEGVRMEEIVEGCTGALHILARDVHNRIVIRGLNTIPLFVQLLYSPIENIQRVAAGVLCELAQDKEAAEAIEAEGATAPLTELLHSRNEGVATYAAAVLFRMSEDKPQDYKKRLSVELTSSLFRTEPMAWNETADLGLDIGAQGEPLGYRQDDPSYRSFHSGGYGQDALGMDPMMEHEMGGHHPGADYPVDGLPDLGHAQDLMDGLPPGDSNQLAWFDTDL

This is an account of results in paper PMC3877284.

Assay [1] deals with T1, flotillin-2 (human (endogenous in MCF10A, MCF7, HaCaT, Hep3B, HeLa)) (UniProt Q14254).
T1 sequence: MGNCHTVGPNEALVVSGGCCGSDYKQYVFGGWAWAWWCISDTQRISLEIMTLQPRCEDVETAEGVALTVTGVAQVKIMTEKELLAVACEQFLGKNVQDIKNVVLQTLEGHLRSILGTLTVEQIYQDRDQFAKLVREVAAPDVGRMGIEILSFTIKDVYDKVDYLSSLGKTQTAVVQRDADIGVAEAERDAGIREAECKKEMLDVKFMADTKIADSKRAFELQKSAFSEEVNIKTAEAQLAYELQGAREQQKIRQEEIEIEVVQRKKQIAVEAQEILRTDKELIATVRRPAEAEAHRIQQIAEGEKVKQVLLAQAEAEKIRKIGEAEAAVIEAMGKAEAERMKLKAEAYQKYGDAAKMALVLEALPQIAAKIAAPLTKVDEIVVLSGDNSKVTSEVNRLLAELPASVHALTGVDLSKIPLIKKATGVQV
Put plainly: co-IP; IP with polyclonal flotillin-1 or flotillin-2 antibody on Dynabeads protein A from lysate of MCF10A cells grown confluent for 5 days; 750 µg total protein; 10 mM Tris-HCl pH 8.0, 150 mM NaCl, 5 mM EDTA, 0.5% Triton X-100, 60 mM N-octylglucoside.

Assay [2] concerns the target β-catenin-GST (UniProt P35222). Description: pull-down; indirect GST pulldown: 5 µg GST-tagged protein on glutathione sepharose beads with MCF10A lysate (1.2-1.25 mg total protein; also lysates of flotillin-1 or flotillin-2 knockdown MCF10A cells), over night at 4°C; 10 mM Tris-HCl pH 8.0, 150 mM NaCl, 5 mM EDTA, 0.5% Triton X-100, 60 mM N-octylglucoside; only the target purified.

In assay [3] the target is T2, γ-catenin (human (endogenous in MCF10A, MCF7, HaCaT, Hep3B, HeLa)) (UniProt P14923).
T2 sequence: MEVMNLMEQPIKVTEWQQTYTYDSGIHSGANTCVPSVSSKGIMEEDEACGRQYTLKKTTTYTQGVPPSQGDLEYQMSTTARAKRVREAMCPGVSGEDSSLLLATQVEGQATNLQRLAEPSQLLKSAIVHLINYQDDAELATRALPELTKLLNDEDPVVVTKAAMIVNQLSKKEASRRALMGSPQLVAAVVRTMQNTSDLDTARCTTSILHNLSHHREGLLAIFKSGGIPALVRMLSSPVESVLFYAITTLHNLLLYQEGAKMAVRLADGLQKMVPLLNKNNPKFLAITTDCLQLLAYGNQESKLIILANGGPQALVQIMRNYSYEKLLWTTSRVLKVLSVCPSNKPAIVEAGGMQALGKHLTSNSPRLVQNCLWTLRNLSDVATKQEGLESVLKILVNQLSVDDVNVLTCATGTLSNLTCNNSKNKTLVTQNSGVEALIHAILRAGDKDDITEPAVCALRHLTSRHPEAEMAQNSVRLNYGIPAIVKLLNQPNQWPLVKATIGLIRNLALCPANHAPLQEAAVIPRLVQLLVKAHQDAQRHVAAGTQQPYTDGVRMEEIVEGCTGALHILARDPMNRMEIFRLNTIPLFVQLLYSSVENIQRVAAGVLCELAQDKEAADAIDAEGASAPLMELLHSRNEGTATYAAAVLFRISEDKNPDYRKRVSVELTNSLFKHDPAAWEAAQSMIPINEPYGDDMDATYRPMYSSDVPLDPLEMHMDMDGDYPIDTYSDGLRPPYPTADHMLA
Put plainly: co-IP; IP with an antibody against γ-catenin; 750 µg total protein.

B1: flotillin-1 (protein, UniProt O75955 1-427)
chain: MFFTCGPNEAMVVSGFCRSPPVMVAGGRVFVLPCIQQIQRISLNTLTLNVKSEKVYTRHGVPISVTGIAQVKIQGQNKEMLAAACQMFLGKTEAEIAHIALETLEGHQRAIMAHMTVEEIYKDRQKFSEQVFKVASSDLVNMGISVVSYTLKDIHDDQDYLHSLGKARTAQVQKDARIGEAEAKRDAGIREAKAKQEKVSAQYLSEIEMAKAQRDYELKKAAYDIEVNTRRAQADLAYQLQVAKTKQQIEEQRVQVQVVERAQQVAVQEQEIARREKELEARVRKPAEAERYKLERLAEAEKSQLIMQAEAEAASVRMRGEAEAFAIGARARAEAEQMAKKAEAFQLYQEAAQLDMLLEKLPQVAEEISGPLTSANKITLVSSGSGTMGAAKVTGEVLDILTRLPESVERLTGVSISQVNHKPLRTA
Turning to B1, the binding entry in assay [1] is on record as “binds”.

B2: flotillin-2 (protein, UniProt Q14254 1-428)
chain: MGNCHTVGPNEALVVSGGCCGSDYKQYVFGGWAWAWWCISDTQRISLEIMTLQPRCEDVETAEGVALTVTGVAQVKIMTEKELLAVACEQFLGKNVQDIKNVVLQTLEGHLRSILGTLTVEQIYQDRDQFAKLVREVAAPDVGRMGIEILSFTIKDVYDKVDYLSSLGKTQTAVVQRDADIGVAEAERDAGIREAECKKEMLDVKFMADTKIADSKRAFELQKSAFSEEVNIKTAEAQLAYELQGAREQQKIRQEEIEIEVVQRKKQIAVEAQEILRTDKELIATVRRPAEAEAHRIQQIAEGEKVKQVLLAQAEAEKIRKIGEAEAAVIEAMGKAEAERMKLKAEAYQKYGDAAKMALVLEALPQIAAKIAAPLTKVDEIVVLSGDNSKVTSEVNRLLAELPASVHALTGVDLSKIPLIKKATGVQV
As to B2, the binding entry in assay [2] and in assay [3] was “binds” in each case.
